Data on 45 compounds can be found in publication PMC4336329 (PLoS ONE, 2015).

The campaign covered roughly 310,000 compounds. About 14,000 (4.5%) showed an effect of 50% or more. The effect is printed as a negative number. This is one part of the list.
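Note: peak tail current of the secondary pulse compared with the same well before compound.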

The target of the assay is human ether-à-go-go-related gene (hERG) potassium channel (human, UniProt Q12809). Kind of assay: primary screen, population patch clamp on CHO cells stably expressing hERG.
human ether-à-go-go-related gene (hERG) potassium channel, sequence (Q12809 whole entry, looked up): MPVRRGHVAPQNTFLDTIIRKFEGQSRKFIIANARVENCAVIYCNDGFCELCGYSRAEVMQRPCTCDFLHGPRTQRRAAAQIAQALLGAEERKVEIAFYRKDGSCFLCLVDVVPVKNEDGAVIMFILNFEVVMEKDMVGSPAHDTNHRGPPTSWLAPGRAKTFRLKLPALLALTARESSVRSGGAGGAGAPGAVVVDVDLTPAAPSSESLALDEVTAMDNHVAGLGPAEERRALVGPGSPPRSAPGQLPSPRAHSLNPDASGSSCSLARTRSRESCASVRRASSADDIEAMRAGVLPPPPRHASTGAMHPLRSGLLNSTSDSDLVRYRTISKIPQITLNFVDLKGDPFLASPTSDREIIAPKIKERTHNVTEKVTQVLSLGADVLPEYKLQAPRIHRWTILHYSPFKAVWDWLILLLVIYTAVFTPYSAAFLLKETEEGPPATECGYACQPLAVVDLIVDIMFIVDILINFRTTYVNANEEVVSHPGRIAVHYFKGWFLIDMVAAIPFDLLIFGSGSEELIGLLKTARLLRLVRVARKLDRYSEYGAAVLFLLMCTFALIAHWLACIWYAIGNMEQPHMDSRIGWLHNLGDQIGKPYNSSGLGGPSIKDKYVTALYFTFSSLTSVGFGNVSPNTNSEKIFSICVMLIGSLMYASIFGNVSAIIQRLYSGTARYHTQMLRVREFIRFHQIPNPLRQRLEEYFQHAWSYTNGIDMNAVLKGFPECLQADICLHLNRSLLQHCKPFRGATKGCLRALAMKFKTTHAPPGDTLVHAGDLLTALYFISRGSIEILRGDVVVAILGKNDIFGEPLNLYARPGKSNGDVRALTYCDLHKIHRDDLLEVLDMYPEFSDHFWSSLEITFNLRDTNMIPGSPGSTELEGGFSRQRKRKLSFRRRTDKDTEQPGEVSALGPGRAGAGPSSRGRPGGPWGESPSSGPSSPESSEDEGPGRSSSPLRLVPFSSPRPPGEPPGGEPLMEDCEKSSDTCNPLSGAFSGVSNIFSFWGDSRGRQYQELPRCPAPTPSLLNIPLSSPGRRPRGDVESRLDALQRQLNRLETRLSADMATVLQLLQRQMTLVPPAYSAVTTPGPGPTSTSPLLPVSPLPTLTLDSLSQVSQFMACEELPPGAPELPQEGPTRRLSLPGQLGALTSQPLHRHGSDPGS
As to `COC(=O)CCCNS(=O)(=O)c1ccc2ccccc2c1`, the “hERG current change (%, negative = inhibition) at 10uM” value is 2.23%.

Consider `COc1cc(S(=O)(=O)NCc2ccccc2)ccc1F`, for which the “hERG current change (%, negative = inhibition) at 10uM” value is recorded as 6.67%. As for `Cc1ccc(CNC(=O)C2CC(c3ccc([N+](=O)[O-])cc3)=NO2)cc1` (stereo not drawn), the figure is -37.3%; as for `COc1cc(/C=C2\C(=N)N3N=C(CC(=O)N4CCOCC4)SC3=NC2=O)cc(OC)c1OC`, 15.6%. For the compound `COc1ccc(S(=O)(=O)N2CCN(C(=O)c3cc4c(s3)CCCC4)CC2)cc1`, the “hERG current change (%, negative = inhibition) at 10uM” value was -16.2%. With `CCOC(=O)N1CCN(C(=O)c2ccc(-n3c(=S)[nH]c4ccccc4c3=O)cc2)CC1` the figure was 9.37%. For `CC1CCCCN1C(=O)c1cnn2c(C(F)(F)F)cc(-c3ccco3)nc12` (stereo not drawn), the “hERG current change (%, negative = inhibition) at 10uM” value is -10.6%. As for `Cn1c(SCC(=O)N2CCOCC2)nnc1-c1ccc2ncccc2c1`, the figure is 15.4%; as for `O=C(CN1CCN(C(c2ccccc2)c2ccccc2)CC1)NCc1ccccc1`, 8.58%; as for `O=C(NCC1CCCO1)c1ccccc1OCc1ccc(F)cc1` (stereo not drawn), -12.8%. With `Cc1ccc(NC(CC(=O)c2ccccc2)C(=O)O)cc1Cl` (stereo not drawn) the figure was 16.4%; with `COc1ccc(N(CC(=O)Nc2cccc(C(C)=O)c2)S(C)(=O)=O)cc1OC`, -10.5%. As to `Cc1ccc(S(=O)(=O)N2CCN(C(=O)COC(=O)c3ccccn3)CC2)c(C)c1`, the “hERG current change (%, negative = inhibition) at 10uM” value is recorded as 7.37%. As for `COc1ccc(CCN2C(=O)C(O)=C(C(C)=O)C2c2ccccc2OC)cc1OC` (stereo not drawn), the figure is 19.4%. With `COc1ccc(OC)c(CN2CCSCC2)c1` the figure was 9.69%; with `CC(=O)Nc1ccc(S(=O)(=O)NC2CCSc3ccccc32)cc1` (stereo not drawn), 3.02%; with `CN1C(=O)N(CC(=O)Nc2sccc2C(N)=O)C(=O)C12CCCCC2`, 1.58%. Regarding `O=C(Nc1cccc2c1CCCC2)c1ccccc1Cl`, the “hERG current change (%, negative = inhibition) at 10uM” value is recorded as 13.2%.

`COc1cccc(CN2CCN(Cc3ccc4cccc(F)c4n3)CC2CCO)c1` (stereo not drawn): the “hERG current change (%, negative = inhibition) at 10uM” value was -39.9%.

As for `O=C(O)Cn1cc(/C=C2/SC(=O)N(CC(=O)N3CCCCCC3)C2=O)c2ccccc21`, the “hERG current change (%, negative = inhibition) at 10uM” value stood at 17.1%. With `O=S(=O)(c1ccccc1)N1CCN(Cc2cc3c(cc2Br)OCCO3)CC1` the figure was 2.87%; with `O=C(c1ccccc1/S(=N/S(=O)(=O)c1ccccc1)N1CCOCC1)N1CCOCC1` (stereo not drawn), -0.047%; with `Cl.O=C(CNC1CCCCC1)NCC1(c2ccccc2)CCCC1`, -0.949%. As for `CSc1nc2ccc(S(=O)(=O)N3CCCC3)cc2s1`, the figure is 2.69%; as for `Cn1c(C(C#N)/C(=N\S(=O)(=O)c2cccs2)c2ccccc2)nc2ccccc21` (stereo not drawn), 2.46%; as for `Cc1c(C(=O)N2CCN(c3ccccn3)CC2)oc2c(F)cccc12`, -26.7%. With `CC1(C)CC(=O)C(C=NCCN2CCN(C(=S)Nc3ccccc3)CC2)=C(O)C1` the figure was -11.3%; with `O=C(Cc1csc(Nc2nc(=S)[nH]c3ccccc23)n1)NCc1ccccc1Cl`, 16.2%; with `CCN(CC)C(=O)OCc1c(-c2ccccc2)ncc2ccccc12`, -25.5%. On to `CCOc1ccccc1NC(=O)c1cccc2c1C(=O)N(CCOC)C2`, for which the “hERG current change (%, negative = inhibition) at 10uM” value is recorded as -48%. With `CCCCOc1ccc(S(=O)(=O)NNC(=O)c2cc3ccccc3o2)cc1` the figure was -3.43%; with `O=C(CSc1nccn1Cc1ccc(F)cc1)Nc1ccc(F)cc1F`, 6%; with `O=S(=O)(NN=C1CCCCCCC1)c1ccc(Br)cc1`, 4.3%. With `COC(=O)c1ccc(CSc2nnc(-c3ccncc3)o2)o1`, the “hERG current change (%, negative = inhibition) at 10uM” value was determined as 0.0203%. For the compound `O=C(CSc1nnc(NC(=O)C2CCC2)s1)Nc1ccc(N2CCOCC2)cc1`, the “hERG current change (%, negative = inhibition) at 10uM” value was 13.4%. Regarding `Cc1oc2c(CN(C)C)c(O)ccc2c(=O)c1-c1ccc2ccccc2n1`, the “hERG current change (%, negative = inhibition) at 10uM” value is -7.18%. `CCOC(=O)c1cc2c(C)n(-c3ccc(OCC)cc3)c(C)c2ccc1=O`: the “hERG current change (%, negative = inhibition) at 10uM” value is -13.2%.

In the case of `CCOC(=O)c1sc2ccc(S(=O)(=O)N3CCCCC3)cc2c1N`, the “hERG current change (%, negative = inhibition) at 10uM” value was determined as 14.2%. With `O=C(NC1CCS(=O)(=O)C1)c1cc(-c2ccccc2)nc2ccccc12` (stereo not drawn) the figure was 13.6%; with `CC1CCN(CCCCOc2ccccc2-c2ccccc2)CC1.O=C(O)C(=O)O`, -72.6%.

For `COC(=O)Cc1[nH]c(=O)[nH]c1C(=O)OC`, the “hERG current change (%, negative = inhibition) at 10uM” value was determined as 2.56%. As for `Cc1ccc(N(CC(=O)NCc2ccc(F)cc2)C(=O)c2csnn2)c(C)c1`, the figure is -34%. With `Cc1ccccc1NS(=O)(=O)c1ccc(NC(=O)N2CCCCC2)cc1` the figure was -1.35%. With `NC(=O)C1CCN(C(=O)CCNS(=O)(=O)c2cc(Br)cnc2N)CC1` the figure was 14.7%; with `CCCn1nnc(NC(=O)COc2ccccc2Cl)n1`, 4.35%.
